# Data reported in PMC10726135.
# This is one part of the list. At the low end of the ranking the order means little. The protein was read in a cell extract, so binding may be indirect.
# Target: T1, HNF4alpha2 (COS-7 nuclear extract) (UniProt P41235)
# T1 sequence: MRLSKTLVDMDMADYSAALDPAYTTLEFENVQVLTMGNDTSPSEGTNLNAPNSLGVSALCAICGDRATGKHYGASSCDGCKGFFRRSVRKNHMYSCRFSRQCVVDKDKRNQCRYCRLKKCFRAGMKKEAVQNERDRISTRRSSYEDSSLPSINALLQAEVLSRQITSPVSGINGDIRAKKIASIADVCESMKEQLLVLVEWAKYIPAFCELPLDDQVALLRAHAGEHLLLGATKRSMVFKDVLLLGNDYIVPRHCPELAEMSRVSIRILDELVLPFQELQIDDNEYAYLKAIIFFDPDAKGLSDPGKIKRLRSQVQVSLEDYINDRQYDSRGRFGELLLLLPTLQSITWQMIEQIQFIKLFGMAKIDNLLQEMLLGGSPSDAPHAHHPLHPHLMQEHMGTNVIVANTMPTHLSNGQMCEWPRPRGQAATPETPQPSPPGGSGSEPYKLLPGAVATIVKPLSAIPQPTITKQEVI
# Assay: protein-binding microarray
# Details: COS-7 nuclear extract on double-stranded Agilent 4x180k PBM; binding buffer, salt, pH and temperature not given; high values mean tight binding; double strand, one strand shown; sequences stand for … in …GCCTAGGGAGATTAGAGTATCGGTCGA
row,Sequence,binding signal (log2 normalized intensity)
1,AGATGGGGTGAACTTTGGACCACATATAGA,7.14
2,GAGAGAAATTGCTTAAGTGCTTGTCAGTTT,1.04
3,GTAGACTAAAACCCATATCTGACTGATGCT,-1.11
4,ATGGCAGACGGGGCTCTCAGAATCTGCCGA,-0.81
5,GATTGCGCCACTGCATTCCAGCCTGGGGCA,-1.17
6,GTGTGTCTGTAGTTTTCGTTGTCTAATCCT,1.75
7,TGGCCAGTATCCGCCTTCACTCCCCTGACA,2.4
8,TTCCTTCGGGATTATGGTAGGCAGCCTCTG,-1.04
9,TGCAAGGCTGTTGGCAGATTAGATATATCT,0.232
10,AAGGTGAAGCCCAGCAGCTCCAGGAGACGT,-0.905
11,GCACGTTAGAGAAAAAGCCCAAGAAACTTC,-1.08
12,GTCACTGTATGCCCGAAAGACGCGGAGCGG,0.97
13,TTTGAGGGCTCAAAGGTTACCACCCAGGAG,3.41
14,CTTGGCTGTGTCCCTTGACCAAAGGTCACT,6.77
15,GCAATAAACTCCGTTATCACTCCTGGTTGG,-0.602
16,CTCAGTATGGCAACCTTTGTCCTGCTGAGG,3.72
17,AGGCTCAGTGGGCGTTGACTGATCCCTCTG,0.757
18,ATGGCTGCAGCTCTTCCACGTGAGATAAGC,-0.809
19,TGGAATACAGCAGGGTAGAAAAGAGTTAAA,-0.339
20,AAGGAATAAAATAGCTGCCTGTGTGTTCTG,0.95
21,TATGTGCTGACTGACTCCTGTTACTTCCAC,0.99
22,AGATAAATGCCTTAGCTGTGACCATCTCCT,-1.21
23,AGTCTAACTTTGGACTTTTATGTTAAGATC,2.25
24,GTGCTGACTAAGAGGAGAAGCAAATGAAAA,-1.17
25,TCCAAACTGCAACCTGATAAGATTTTAGAA,-1.14

row,Sequence,binding signal (log2 normalized intensity)
1,GTCAAAGGTTGATGGTATGTTTCAGCCAAG,1.16
2,AAGCGGCTGGCTTTAAGGTCACATAGCAGG,-0.0902
3,ATGGACATAGTAACAACCTAAATCAGAGCA,-1.2
4,GGGCCACTCAGTTGAAGTTCCAGAAGACTA,-1.08
5,CATCTGCAAGAGAGAATAGATAGTGTGAGG,1.26
6,GGGTCATGCTGGTCTCCTTGCCCCACCCCC,5.55
7,TGTGACTGATAAATCCCGAGCCAGAGCCAA,-0.887
8,CGTCTTACATTTCTAAAGAACATTCCAGCT,-1.13
9,GTGCTCTGGGTCTGTCCTTTGTGTTTATGG,2.66
10,TATCTTTCTCCTACAGCCTGATGTTGACAG,0.831
11,CGTCCTGTGGCAAAGGTGAATGACCCCTCC,4.78
12,CACTGGCCAAAGGTAATAGGAAAAGGGAGT,-1.1
13,AGCTAGTAGGAGCGGGCTTAACTAGGAGCC,-1.12
14,GAGCTGAAACAGTCTGATTCTAGGGCCCAT,-1.16
15,GGCTAATGCATGTCCCTCCTCAACCTCTCC,-0.256
16,TCACAAGACTGTTATCACAGCTGGCCCACT,-1.12
17,AAGCACTGAGCATACAGAACCCATGCTCTT,-1.01
18,AGGTCCTTGAAAGTAAGCAGACACTGAAAG,-1.08
19,AAGGTCAGCGCTTTGGTAGGCTGTATGGCT,-1.1
20,ACACACAGCACTGCAAACAGTGAGCCCAGT,-1.05
21,TTGAAGTGCTTCCTGTGTATTTCTTCATCA,1.44
22,GTTAGACGCACGGCAGAGCACCTGGATAAG,-1.16
23,AACTATGCTAAGAATGCGAACCATTTCCCA,-1.02
24,AAGCTATCCCTCCATATTGCAGACAGCATA,-1.21
25,TCTGAGTAAACACAGACTTTGGAATCACAA,2.65

row,Sequence,binding signal (log2 normalized intensity)
1,GCACAAAGTACAAAAGAGGCTTCCTGGGCC,-1.16
2,AATTGTGTGGTTATCTGTTGGGGAATCAGT,1.72
3,AAACAAATAATGGCTTTTGCCCTCAAGGAG,0.862
4,CTAGGTCAGCAGTTGTTCAAAGTCCATGTG,5.04
5,GGTCCACAGCTTTGGGCATACAAAACAACC,-1.09
6,GAGCACAAGAACAAAAACTGTTTCTATGTG,-1.07
7,CCTAGCTGAGCAGGGGACTAAGAGCAGCCT,-0.954
8,AGACTGGCTCCGCTGCTGCAGAGCAAAGCT,-1.11
9,AGCAATGCTGAGTATGCAGCGGGCAGCCCG,-1.32
10,CATCCCCCCAAAGGCTCTCTGTTGACCACC,3.62
11,TAAAATGGACTTTGTGGGCCAAAAGCAGCC,2.22
12,GACTCCCCAGCAGGCAGACTGGCTCCGCTG,-1.08
13,TAGCATTTTGCAGAGACGGCAAGCCATAGT,-1.09
14,CCAAAGTCCTTCCCAAGTCCTGCATGTGTT,1.84
15,AGGGAGGGCCAAGCCCTCCATCCAACCATT,3.65
16,GAGGGGAGGAGGGTCAAAACTTCAGACTAT,-1.15
17,AGGCACACTCTATTATGTAAAACAGACAGG,-0.0649
18,ATGGATGAATTTTATCACTCCATCAAGGGG,-1.1
19,TAGATAAGTCCACAAAGATAAGAAAGAATC,-1.1
20,AGTTTGGGCTGTGAGAAACATCCTGCCTAA,-1.14
21,CCTGGGTTAAAGTCCGTTACAGACAGGCAG,3.35
22,GTTAACAGAATGAACAGCTCTTCTTGCCAG,-0.885
23,TTGGACAGGGTGACGTCATTGGAAATCCGA,-0.417
24,ACTGATCTCTGGCTTGATCCCTGAACTTTG,3.32
25,CAGCACCATCCTACAGGGTATGAATTTAAC,-1.07

row,Sequence,binding signal (log2 normalized intensity)
1,AGTCAAGGCCAAAGGTTAAAAATAAGTTCT,3.45
2,GAATCAGGTTTTCAGAAGGTAGGTAAGGGG,0.178
3,CCAATAACTGCTTCTTTTATGGTGCATTCC,1.4
4,AAATCCCCCACCATTGTTATCTGATCAAAT,3.37
5,CTGCCTCAAACAGCTTCGCCTCCTCCAAGC,-1.13
6,ACAATGTGATTTATGAAGGGGGGTGGGGAG,-1.17
7,CAGACTGCATTTTCATCTTGCCTTTGCTCC,1.06
8,TTAGGAAAGAGACATCTGGGAACAAGTTCT,-1.14
9,CTATTAGGTCTTTGAAGTTGTCTTATCACC,1.34
10,AAAGGAGGCAGAGACTGCCCTGAGCCGCCA,-1.12
11,AGTTTCAGGTTCAAATCTAAACCTAGCAGC,-1.11
12,GTTTCAGCCCTAAAGACCACTGGGCTTTCA,-1.02
13,AATGCAGGCAATGAATAGAACAAATAAAGT,-1.15
14,TTTATCTACCTTTGTACCTTTAGTATCTAG,2.9
15,GGATGGAATTTAAAACATCTTTGAAGAGCA,-0.825
16,GGAGTCTGGCTGCCCTGGGGTGACAGCTTT,0.0136
17,GCGCAGACGGCGGATCCTCCCAGCCTGGAG,-1.08
18,GACTGTCTTAGGAAAGAACAGGTCAAAGGT,3.91
19,AATATCTCAGCACATGGCAGTGTACACTAG,0.444
20,CTGAACATGGTGACACACACCTCCAGCCAC,-1.15
21,GGCTGTTTGGGAACCGTTAGCAACCGGAAG,-0.705
22,AAGGCCAGAGAAAGAGAGAGTTAGTTCTGC,-1.12
23,CGGGTGAAGGTTAAATAGCTCATTAAGCTT,-0.974
24,GTCCTGGCAGGCTTCGAAAAATGGGTCTGG,-0.712
25,ACCCACCCACACCTCCCCTTTGTTTAACTT,2.8

row,Sequence,binding signal (log2 normalized intensity)
1,ACAGATGTAGACATTGGAATGCGGGCTCCA,-0.394
2,ATAAAACACTGACATCATCGCAGAAAGCTC,-1.11
3,ATTCTCCCTGCAGTCCTCTGCTTATCTGGC,0.692
4,TTTTAAGTCACCAGATGAGATAGGAGGTCA,2.05
5,AATGTGGGGAGCACATGGCATGATCCCTGA,-0.636
6,ACATGATAGGTTACCTTGACCAAAGTACAG,2.42
7,GTCAGGAGTACAGGTAGGATCAAGGGTGGA,-0.0481
8,TTACTGGTGAACATAAATCGCAAATATTTA,-1.07
9,AAAAGAAGAAAAAACAGGTGTTCTTTCCCT,-1.17
10,GCATGGTTTACTGAAATAGGTAAGCTGGCC,0.0341
11,TGAGTGCTTCAGTCCAAAAAGTGGTGGTGT,1.92
12,TCCTGAGCAGTCCCTTCCCCCCTCCTCATT,4.58
13,CAAGGAAAACTACACTCTTGCTAAACCCTC,-1.14
14,TGAAGCGACCCCTCGAGGCAACCTTTGACC,8.54
15,TAATCAACACTGACAGATTCCTGCTAACAG,-1.02
16,GAGACCAAATATTAGAACAAACGACGCTCC,-1.07
17,GGTTTGAATCCCGGGAATCCTCAGCCTTCT,-1.09
18,TAAACTAAGATATTGGTAAGTTAAGTAACT,-0.668
19,AAGATGAAAGACGAAAGGGACTTTGATCTT,6.37
20,GCCAGATTGAGAAACACATTCTTAGACAAC,-0.897
21,CTGGGGCCGGGAGCAGGGAGCGAGACGCTG,-1.06
22,CCCAGAGGTCAAACTATCTGAGGTGGTCCA,1.71
23,AAGGATTATTACATGTTTACCCACATACAA,0.684
24,ACTGGCCCATTAGAACAAAGATCAAAGCAG,-1.24
25,GGCGCGGGATCCTCTTTCCTGCAGGCCCAT,-1.06

row,Sequence,binding signal (log2 normalized intensity)
1,GGTATCAGAGTGGAGCCAGATGCACACAGG,-1.11
2,TGGTGGCACAGGGAATGGCTCGTATGAATG,0.46
3,AGAAACGCCTGGCGCTTATCTGAGCACACA,-1.2
4,AATGATATGGACAATGAAATTCAGGCTGAG,-0.673
5,CTTTCTCTCTCCCTTCCTGGAGCCAAGGTT,1.81
6,TTTGCAATGTAAACATCAAGGAAGAGAACT,-0.31
7,TTCTCCCCCGATAAGGCTGCCTCCTATCCT,2.59
8,TTATCATTACTTCTCAACTGATATGGCTCT,1.03
9,CAGCGTGAACTTTGACATGAGAGAAAAGAA,2.7
10,AACTGGTTCTGTGGAATTTGTGCTTATTTC,1.79
11,CATGTGCCAGATATGCCGAGAATGCAGCCT,-1.1
12,TGATGTTCCCCCTCCCTGGACTCCTGGGAC,4.16
13,GTGAGAATCCCAGCTCGTGGGCATGCCTCC,-1.13
14,GGGCCACGCCCTGCACCCTACGTAAATGCA,-1.03
15,CACAAACATCACCTACCTGACTCCTTAGGG,-1.16
16,GTTTTCCCATTCATGACATTGATTTATTGT,2.01
17,CACTGTTGCCCCTTCCAAAGTCCACCTCAA,4.43
18,CTAGGAGAGTCCGGGGCAAACAAGGGCAAC,-0.823
19,ATGATACAGCCTTTTGCCCCCAGGCTGCAA,3.19
20,TCTATTCTATCTGTATTCTGAAGCCCTACA,-0.784
